# Measurements reported in the supplement of paper PMC8728848.
# This is one part of the list.
# Experiments:
# Assay in all cases: glycan array binding signal (z-score within array); higher = stronger binding
# Settings in all cases: glycan notation: IUPAC condensed, linker removed
# [1] = target: Gal(b1-4)GlcNAc(b1-3)Gal(b1-4)GlcNAc(b1-3)[Gal(b1-4)GlcNAc(b1-3)Gal(b1-4)GlcNAc(b1-6)]GalNAc
# How it was run: (§1)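 Arrays were curated from the Consortium for Functional Glycomics database, 3228 in total, and kept only where the protein sequence was available. Binding is expressed as a within-array Z-score. This score was averaged across arrays of the same protein sequence at different concentrations or buffers and across linkers, and negative values can be read as non-binding.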
# [2] = target: Gal(b1-4)GlcNAc(b1-3)Gal(b1-4)GlcNAc(b1-6)[Gal(b1-3)]GalNAc
# How it was run: as §1
# [3] = target: Gal(b1-4)GlcNAc(b1-3)Gal(b1-4)[Fuc(a1-3)]GlcNAc(b1-3)Gal(b1-4)[Fuc(a1-3)]GlcNAc
# How it was run: as §1
# [4] = target: Gal(b1-4)GlcNAc(b1-3)GalNAc
# How it was run: as §1
# [5] = target: Gal(b1-4)GlcNAc(b1-3)[Fuc(a1-3)GlcNAc(b1-6)]Gal(b1-4)Glc
# How it was run: as §1
# [6] = target: Gal(b1-4)GlcNAc(b1-3)[Gal(b1-4)GlcNAc(b1-6)]Gal(b1-4)GlcNAc
# How it was run: as §1
# [7] = target: Gal(b1-4)GlcNAc(b1-3)[GlcNAc(b1-6)]Gal(b1-4)GlcNAc
# How it was run: as §1
# [8] = target: Gal(b1-4)GlcNAc(b1-6)Gal(b1-4)GlcNAc
# How it was run: as §1
# [9] = target: Gal(b1-4)GlcNAc(b1-6)GalNAc
# How it was run: as §1
# [10] = target: Gal(b1-4)GlcNAc(b1-6)[Gal(b1-3)]GalNAc
# How it was run: as §1
# [11] = target: Gal(b1-4)GlcNAc(b1-6)[Gal(b1-4)GlcNAc(b1-3)]GalNAc
# How it was run: as §1
# Gal(b1-4)GlcNAc6P = target: Gal(b1-4)GlcNAc6P
# How it was run: as §1
# Gal(b1-6)Gal = target: Gal(b1-6)Gal
# How it was run: as §1
# Gal3S(b1-3)GalNAc = target: Gal3S(b1-3)GalNAc
# How it was run: as §1
# Gal3S(b1-3)GlcNAc = target: Gal3S(b1-3)GlcNAc
# How it was run: as §1
# [12] = target: Gal3S(b1-3)[Fuc(a1-4)]GlcNAc
# How it was run: as §1
# Gal3S(b1-4)Glc = target: Gal3S(b1-4)Glc
# How it was run: as §1
# Gal3S(b1-4)Glc6S = target: Gal3S(b1-4)Glc6S
# How it was run: as §1
# Gal3S(b1-4)GlcNAc = target: Gal3S(b1-4)GlcNAc
# How it was run: as §1
# [13] = target: Gal3S(b1-4)[Fuc(a1-3)]Glc6S
# How it was run: as §1
# [14] = target: Gal3S(b1-4)[Fuc(a1-3)]GlcNAc
# How it was run: as §1
# [15] = target: Gal3S(b1-4)[Fuc(a1-3)]GlcNAc6S
# How it was run: as §1
# Gal3S4S(b1-4)GlcNAc = target: Gal3S4S(b1-4)GlcNAc
# How it was run: as §1
# Gal3S6S(b1-4)GlcNAc = target: Gal3S6S(b1-4)GlcNAc
# How it was run: as §1
# Gal3S6S(b1-4)GlcNAc6S = target: Gal3S6S(b1-4)GlcNAc6S
# How it was run: as §1
# Gal4S(b1-4)GlcNAc = target: Gal4S(b1-4)GlcNAc
# How it was run: as §1
# Gal4S6S(b1-4)GlcNAc = target: Gal4S6S(b1-4)GlcNAc
# How it was run: as §1
# Gal6P(b1-4)GlcNAc = target: Gal6P(b1-4)GlcNAc
# How it was run: as §1
# Gal6S(b1-3)GlcNAc = target: Gal6S(b1-3)GlcNAc
# How it was run: as §1
# Gal6S(b1-3)GlcNAc6S = target: Gal6S(b1-3)GlcNAc6S
# How it was run: as §1
# Gal6S(b1-4)Glc = target: Gal6S(b1-4)Glc
# How it was run: as §1
# Gal6S(b1-4)Glc6S = target: Gal6S(b1-4)Glc6S
# How it was run: as §1
# Gal6S(b1-4)GlcNAc = target: Gal6S(b1-4)GlcNAc
# How it was run: as §1
# Gal6S(b1-4)GlcNAc6S = target: Gal6S(b1-4)GlcNAc6S
# How it was run: as §1
# GalNAc(a1-3)Gal = target: GalNAc(a1-3)Gal
# How it was run: as §1
# GalNAc(a1-3)GalNAc = target: GalNAc(a1-3)GalNAc
# How it was run: as §1
# [16] = target: GalNAc(a1-3)GalNAc(b1-3)Gal(a1-4)Gal(b1-4)Glc
# How it was run: as §1
# [17] = target: GalNAc(a1-3)GalNAc(b1-3)Gal(a1-4)Gal(b1-4)GlcNAc
# How it was run: as §1
# GalNAc(b1-3)Gal = target: GalNAc(b1-3)Gal
# How it was run: as §1
# [18] = target: GalNAc(b1-3)Gal(a1-4)Gal(b1-4)GlcNAc
# How it was run: as §1
# [19] = target: GalNAc(b1-3)Gal(a1-4)Gal(b1-4)GlcNAc(b1-3)Gal(b1-4)Glc
# How it was run: as §1
# [20] = target: GalNAc(b1-3)Gal(a1-6)Gal(b1-4)Glc
# How it was run: as §1
# GalNAc(b1-3)GalNAc = target: GalNAc(b1-3)GalNAc
# How it was run: as §1
# GalNAc(b1-3)GlcNAc = target: GalNAc(b1-3)GlcNAc
# How it was run: as §1
# GalNAc(b1-4)Gal(b1-4)Glc = target: GalNAc(b1-4)Gal(b1-4)Glc
# How it was run: as §1
binder,measurement,setting,value
"LBL-152 (Laetiporus bicolor), B0D650 (protein) MSNEYNPPLGIAFRLCGLASDRVLFSRVSPSPEVFHHPKSEVYPDQWFVAIPGSGQNAGCYAIKSKNTGKVLFSRMSPDPRVGHIDGDGKYPDNWFKFEAGSGKYAGYFRLRAVASDTVLVSRTSTGTDTQVINYPATSAKYDDQYFTILFDHHHHHH",glycan array binding signal (z-score),[1],-0.14
same,glycan array binding signal (z-score),[2],-0.155
same,glycan array binding signal (z-score),[3],-0.14
same,glycan array binding signal (z-score),[4],-0.158
same,glycan array binding signal (z-score),[5],-0.155
same,glycan array binding signal (z-score),[6],0.119
same,glycan array binding signal (z-score),[7],-0.14
same,glycan array binding signal (z-score),[8],-0.159
same,glycan array binding signal (z-score),[9],-0.146
same,glycan array binding signal (z-score),[10],-0.149
same,glycan array binding signal (z-score),[11],-0.136
same,glycan array binding signal (z-score),Gal(b1-4)GlcNAc6P,-0.158
same,glycan array binding signal (z-score),Gal(b1-6)Gal,-0.154
same,glycan array binding signal (z-score),Gal3S(b1-3)GalNAc,-0.143
same,glycan array binding signal (z-score),Gal3S(b1-3)GlcNAc,-0.141
same,glycan array binding signal (z-score),[12],-0.155
same,glycan array binding signal (z-score),Gal3S(b1-4)Glc,-0.139
same,glycan array binding signal (z-score),Gal3S(b1-4)Glc6S,-0.142
same,glycan array binding signal (z-score),Gal3S(b1-4)GlcNAc,-0.141
same,glycan array binding signal (z-score),[13],-0.128
same,glycan array binding signal (z-score),[14],-0.152
same,glycan array binding signal (z-score),[15],-0.148
same,glycan array binding signal (z-score),Gal3S4S(b1-4)GlcNAc,-0.148
same,glycan array binding signal (z-score),Gal3S6S(b1-4)GlcNAc,-0.133
same,glycan array binding signal (z-score),Gal3S6S(b1-4)GlcNAc6S,-0.135
same,glycan array binding signal (z-score),Gal4S(b1-4)GlcNAc,-0.139
same,glycan array binding signal (z-score),Gal4S6S(b1-4)GlcNAc,-0.152
same,glycan array binding signal (z-score),Gal6P(b1-4)GlcNAc,-0.155
same,glycan array binding signal (z-score),Gal6S(b1-3)GlcNAc,-0.15
same,glycan array binding signal (z-score),Gal6S(b1-3)GlcNAc6S,-0.154
same,glycan array binding signal (z-score),Gal6S(b1-4)Glc,-0.141
same,glycan array binding signal (z-score),Gal6S(b1-4)Glc6S,-0.153
same,glycan array binding signal (z-score),Gal6S(b1-4)GlcNAc,-0.151
same,glycan array binding signal (z-score),Gal6S(b1-4)GlcNAc6S,-0.148
same,glycan array binding signal (z-score),GalNAc(a1-3)Gal,-0.152
same,glycan array binding signal (z-score),GalNAc(a1-3)GalNAc,-0.148
same,glycan array binding signal (z-score),[16],-0.158
same,glycan array binding signal (z-score),[17],-0.157
same,glycan array binding signal (z-score),GalNAc(b1-3)Gal,-0.157
same,glycan array binding signal (z-score),[18],-0.138
same,glycan array binding signal (z-score),[19],-0.142
same,glycan array binding signal (z-score),[20],-0.159
same,glycan array binding signal (z-score),GalNAc(b1-3)GalNAc,-0.146
same,glycan array binding signal (z-score),GalNAc(b1-3)GlcNAc,-0.16
same,glycan array binding signal (z-score),GalNAc(b1-4)Gal(b1-4)Glc,-0.154
